Experimental data published in patent publication US20240092835A1, “NOVEL PEPTIDES CAPABLE OF ALTERING NK CELL ACTIVITY” (Massachusetts Institute of Technology, priority 2022, published 2024).

Target: HLA-E on RMA-S/HLA-E cells (human), P13747
Assay: RMA-S/HLA-E cells, 30 uM peptide 16 h, anti-HLA-E flow cytometry

Chain of HLA-E on RMA-S/HLA-E cells (human), P13747 (P13747 22-358): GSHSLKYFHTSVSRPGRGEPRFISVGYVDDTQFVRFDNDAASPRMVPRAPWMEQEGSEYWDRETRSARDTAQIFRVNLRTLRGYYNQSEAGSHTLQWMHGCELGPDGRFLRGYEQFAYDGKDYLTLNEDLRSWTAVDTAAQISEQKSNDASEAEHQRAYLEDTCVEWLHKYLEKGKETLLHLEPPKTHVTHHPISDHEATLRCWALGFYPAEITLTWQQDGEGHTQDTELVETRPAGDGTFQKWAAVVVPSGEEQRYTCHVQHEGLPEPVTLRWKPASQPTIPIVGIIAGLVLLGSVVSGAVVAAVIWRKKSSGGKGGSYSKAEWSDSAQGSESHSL

Binder	GeoMFI (HLA-E surface stabilization)
VMPGRTLCF (modifications not checked) [TACR3226-234 (human11)]	3150, 2910, 3430, 3610 GeoMFI [columns of one line]
VMAPRTLFL (modifications not checked) [… (LFL)]	3480, 3310, 3920, 4060 GeoMFI [columns of one line]
RMPPRSVLL (modifications not checked) [INTS1260-268 (human12)]	3780, 4220, 4270, 4700 GeoMFI [columns of one line]
TLPKRGLFL (modifications not checked) [AKAP6388-396 (human2)]	2020, 2030, 1730, 2800 GeoMFI [columns of one line]
TLPERTLYL (modifications not checked) [ECEL1269-277 (human7)]	3200, 3540, 3900, 4460 GeoMFI [columns of one line]
QMPSRSLLF (modifications not checked) [CREB3L1419-427 (human1)]	2460, 1760, 2270, 2500 GeoMFI [columns of one line]
FLPNRSLLF (modifications not checked) [SLC52A3354-362 (human8)]	1070, 813, 1050, 1650 GeoMFI [columns of one line]
NMPARTVLF (modifications not checked) [MTREX490-498 (human14)]	1300, 1360, 1000, 1740 GeoMFI [columns of one line]
TAPARTMFL (modifications not checked) [PISD55-63 (human13)]	851, 887, 673, 1190 GeoMFI [columns of one line]

For part of its entries the source gives two or more results. The other results are left out here. There may be further records. The values listed for one entry seem to repeat one measurement; one of them may be the mean.
